Out of some 370,000 compounds screened, about 150 (0.041%) were called active. Inconclusive means that the source gave no clear call. Such entries were picked first, then a sample of the others. The call rests on the fitted dose curve; in most records, active means well fitted inhibition curve with a large enough effect; inconclusive means small, poorly fitted or top-dose-only effect; inactive means flat fitted curve, though single readings scatter. Potencies of inconclusive entries are left out as doubtful fits.
Molecular target: Beta-lactamase (Escherichia coli (strain K12)) (UniProt P00811)
Test: qHTS Inhibitors of AmpC Beta-Lactamase (assay with detergent); further: nearly all actives have a fitted effect of over 25% in size;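 on activity change, negative = inhibition: 0% = no-compound wells and -100% = no-enzyme wells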
Conditions: AmpC hydrolysis of nitrocefin, absorbance 480 nm, 0.01% Triton; activity change, negative = inhibition: at 114 µM (top of the series)
Method in brief: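 AmpC (5.3 nM in the dispensed reagent) in 20 mM phosphate pH 7.0 with 0.01% (detergent screen) or 0.0001% Triton X-100 was preincubated with compounds for 15 min at room temperature. Nitrocefin was then added from an 800 uM solution, and hydrolysis was followed at 480 nm.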
Potency means the concentration at half of the fitted maximal effect; tags describe the fitted curve by direction and shape.

Chain of UniProt P00811 (P00811 whole entry, looked up): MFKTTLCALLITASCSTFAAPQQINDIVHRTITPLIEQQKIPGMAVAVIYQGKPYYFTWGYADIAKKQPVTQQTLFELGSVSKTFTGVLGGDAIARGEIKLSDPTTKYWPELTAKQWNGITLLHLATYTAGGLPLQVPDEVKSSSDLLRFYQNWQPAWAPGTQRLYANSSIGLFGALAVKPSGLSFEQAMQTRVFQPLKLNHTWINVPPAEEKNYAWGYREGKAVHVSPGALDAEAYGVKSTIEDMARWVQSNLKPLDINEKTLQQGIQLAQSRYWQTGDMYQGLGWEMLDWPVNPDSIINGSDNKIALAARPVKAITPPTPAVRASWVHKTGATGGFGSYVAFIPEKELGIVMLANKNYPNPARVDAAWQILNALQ

SMILES	Potency	activity change, negative = inhibition
NNC(=O)CCC(=O)Nc1ccccc1	inconclusive [inhibitor, full curve, poor fit]	–
O=C(Nc1ccccc1C(=O)NCCCN1CCOCC1)c1ccc(Cl)cc1	–	inactive: -1.18%
O=C(Nc1ccccc1)O/N=C(\c1ccccc1)c1ccccn1	inconclusive [inhibitor, full curve, poor fit]	–
Nc1ccc(/C=C/c2ccc3ncccc3c2)cc1	–	inactive: 8.41%
N#CCCn1cc(C(=O)Nc2ccc(C(=O)O)cc2)c(-c2cccc(Br)c2)n1	inconclusive [inhibitor, full curve, poor fit]	–
O=C(Nc1ccc([N+](=O)[O-])cc1)Nc1nc(-c2ccc(Cl)s2)cs1	inconclusive [inhibitor, full curve]	–
O=C(Cn1cnc2scc(-c3ccc(F)cc3)c2c1=O)N1CCOCC1	inconclusive [inhibitor, full curve, poor fit]	–
COc1ccc(S(=O)(=O)N2CCOCC2)cc1NC(=O)[C@@H]1CCCN1C(=O)c1cccs1	inconclusive [inhibitor, full curve, poor fit]	–
CCc1c(C(=O)N/N=C/c2ccc(C)o2)csc1C	–	inactive: -10.2%
COc1ccc(C2NC(=O)NC(C)=C2C(=O)OCc2ccc3c(c2)OCO3)cc1OC (stereo not given)	–	inactive: -7.97%
CC[C@]1(c2ccccc2OC)C(=O)N(C(=O)OC)N1C(=O)OC	inconclusive [inhibitor, partial curve, poor fit]	–
Cc1cc(Sc2nc(NC(C)C)nc(NC(C)C)n2)nc(Cl)n1	–	inactive: 3.27%
CCN(CC)S(=O)(=O)c1ccc(N2CCCC2)c(NC(=O)C2=COCCO2)c1	inconclusive [inhibitor, full curve, poor fit]	–
CC(=O)Nc1ccc(S(=O)(=O)N2CCC(NC(=O)c3ccccc3)CC2)cc1	inconclusive [inhibitor, partial curve]	–
O=C(C1=C[C@H](C2CCCCC2)C[C@H](OCCCCO)O1)N1CCOCC1	–	inactive: 7.01%
c1ccc(-c2cc(CSc3nc4ccccc4[nH]3)on2)cc1	inconclusive [inhibitor, partial curve]	–
O=S(=O)(c1ccc(SCc2ccc(Br)cc2)nc1)N1CCOCC1	inconclusive [inhibitor, full curve, poor fit]	–
COc1cc(Cl)c(C)cc1NC(=O)c1ccc(CN2C(=O)CCn3nc(C)cc32)cc1	–	inactive: -2.94%
Cc1c(Cl)cccc1NC(=O)CSc1ncc(S(=O)(=O)c2ccc(C(C)C)cc2)c(=O)[nH]1	–	inactive: 2.59%
CCOC(=O)C(C)Oc1ccc(OCc2ccccc2)cc1 (stereo not given)	–	inactive: -13.6%
COc1cc(OC)cc(C(=O)NNC(=O)c2ccc(S(=O)(=O)N(C)c3ccccc3OC)cc2)c1	–	inactive: 7.2%
CCOc1cc(NC(=S)NCCCN2CCOCC2)c(OCC)cc1NC(=O)c1ccco1	–	inactive: 1.86%
O=C(NCCCNC(=O)c1cnccn1)c1ccc(Cl)cc1	inconclusive [inhibitor, full curve, poor fit]	–
CCCc1cc(=O)[nH]c(SCC(=O)Nc2cccc3ccccc23)n1	inconclusive [inhibitor, full curve, poor fit]	–

SMILES	Potency	activity change, negative = inhibition
COc1cc2c(C(=O)NCCCN3CC(C)CC(C)C3)cn(CC(C)C)c(=O)c2cc1OC (stereo not given)	inconclusive [inhibitor, single point]	–
CC1CC(C)CN(C(=O)COC(=O)CCc2nc3ccccc3c(=O)[nH]2)C1 (stereo not given)	inconclusive [inhibitor, full curve, poor fit]	–
CC(Oc1ccc(Cl)cc1Cl)C(=O)Nc1ccncc1 (stereo not given)	inconclusive [inhibitor, full curve]	–
COc1ccc(NC(=S)N2CCC(Cc3ccccc3)CC2)cc1OC	inconclusive [inhibitor, partial curve]	–
CC(=O)N1N=C2c3ccccc3CCC2C1c1ccc(F)cc1 (stereo not given)	inconclusive [inhibitor, single point]	–
O=C1Nc2ccccc2C12Nc1ccccc1S2 (stereo not given)	inconclusive [inhibitor, full curve]	–
CC(=O)Oc1ccc(C(=O)Nc2cccc(-c3nnc(-c4ccco4)o3)c2)cc1	inconclusive [inhibitor, full curve, poor fit]	–
CCCCn1nc(C(=O)Nc2c(C)n(C)n(-c3ccccc3)c2=O)c2ccccc2c1=O	–	inactive: -18%
O=C(CSc1nnc(-c2ccccc2)o1)c1nnc(-c2ccccc2)o1	inconclusive [inhibitor, partial curve]	–
O=S(=O)(c1ccccc1F)N1CCN(Cc2cc3c(cc2Br)OCCO3)CC1	inconclusive [inhibitor, partial curve]	–
Cc1ccc(NC(=O)c2ccccc2CCc2ccccc2)c(C)c1	inconclusive [inhibitor, single point]	–
CCn1c(C(=O)NCc2ccc(OC)cc2)cc2sc(Cl)cc21	inconclusive [inhibitor, single point]	–
O=C(Nn1c(-c2ccc(Br)cc2)nc2ccccc2c1=O)c1ccncc1	–	inactive: 3.94%
COc1ccccc1-n1c(=O)[nH]c2c(C(N)=O)nc(CC(C)C)nc21	inconclusive [inhibitor, full curve, poor fit]	–
S=c1[nH]nc(-c2ccco2)n1/N=C/C=C/c1ccco1	–	inactive: -12.1%
COc1ccc(CN2C(=O)c3cccnc3C2Nc2cc(Cl)c(OC)cc2OC)cc1 (stereo not given)	inconclusive [inhibitor, full curve, poor fit]	–
CCN1C(=O)[C@H]2[C@@H](c3ccc(-c4cccc(Cl)c4)cc3)N[C@@](C)(C(=O)OC)[C@H]2C1=O	–	inactive: -3.84%
Cc1ccc(C(=O)Nc2nc(C)c(C(=O)N(C)C)s2)o1	inconclusive [inhibitor, full curve]	–
Cc1ccc(NC(=O)C2CCCN(S(=O)(=O)c3ccc4[nH]c(=O)ccc4c3)C2)cc1C (stereo not given)	inconclusive [inhibitor, partial curve, poor fit]	–
COc1ccc(C(=O)N(c2ccccn2)C2CCCCC2)c(OC)c1	inconclusive [inhibitor, full curve, poor fit]	–
COc1ccc(C2=NS(=O)(=O)N(C)C(C(=O)N3CCCCC3C)=C2)cc1 (stereo not given)	inconclusive [inhibitor, partial curve, poor fit]	–
CC1CCN(C(=O)c2ccc(Br)c(S(=O)(=O)N3CCOCC3)c2)CC1	–	inactive: -9.82%
CCn1c(SCc2ccc(C(=O)Nc3nccs3)cc2)nnc1-c1ccc(N)cc1	–	inactive: 0.217%
COC(=O)c1ccc(CSc2ccc3nnc(-c4cccc(F)c4)n3n2)o1	–	inactive: -19%

SMILES	Potency	activity change, negative = inhibition
COc1ccccc1Nc1ncc(C(=O)N2CCN(Cc3ccc(OC)c(OC)c3OC)CC2)c2ccccc12	inconclusive [inhibitor, single point]	–
Cc1ccc(-c2ccc(=O)n(CCC(=O)NCc3ccccn3)n2)cc1	inconclusive [inhibitor, partial curve]	–
CN(C(=O)COC(=O)c1ccc(CN2CCCC2=O)cc1)c1ccccc1	–	inactive: -1.52%
COc1ccc(Cl)cc1C(=O)NC1=NCCS1	inconclusive [inhibitor, partial curve, poor fit]	–
Cc1ccc(-c2nnn(CC(=O)N(c3ccccc3F)C(C(=O)NC3CCCC3)c3ccncc3)n2)o1 (stereo not given)	inconclusive [inhibitor, full curve, poor fit]	–
COc1ccc(OC)c(-c2csc(NC(=O)COC(=O)C3(C)CC3(Cl)Cl)n2)c1 (stereo not given)	–	inactive: -14.4%
COc1ccc(OC)c2[nH]c(=O)c(CCNC(C)=O)cc12	inconclusive [inhibitor, full curve]	–
COc1ccc(Cl)cc1NS(=O)(=O)c1cccc(C(=O)NCC(C)(C)N2CCOCC2)c1	inconclusive [inhibitor, full curve, poor fit]	–
COc1ccccc1NC(=S)NCc1ccco1	–	inactive: -4.04%
COC(=O)c1ccccc1NC1c2ccccc2C(=O)N1c1cccnc1 (stereo not given)	inconclusive [inhibitor, partial curve]	–
CC(=O)N1CCN(CC(=O)Nc2ccccc2Sc2ccccc2)CC1	–	inactive: -1.16%
O=C(Cc1ccccc1[N+](=O)[O-])NNC(=O)Nc1ccc2c(c1)OCO2	inconclusive [inhibitor, partial curve]	–
CCc1ccc(CNC(=O)c2nn(-c3ccc(OC)c(Cl)c3)c(=O)c3c2c2ccccc2n3C)cc1	–	inactive: 2.27%
CC(=O)Nc1ccc(NC(=O)CN(c2cccc(C(C)=O)c2)S(C)(=O)=O)cc1	–	inactive: 4.16%
COC(=O)c1ccc(COc2ccc(-c3nn[nH]n3)cc2)cc1	–	inactive: 2.23%
O=C(c1ccco1)N1CCN(c2nc(C(F)(F)F)nc3c2nnn3Cc2ccccc2)CC1	inconclusive [inhibitor, partial curve]	–
c1ccc(-c2nc3ccccc3[nH]2)cc1	inconclusive [inhibitor, single point]	–
CN1CCN(C(=O)C2CCC(=O)N(CCc3cccc(F)c3)C2)CC1 (stereo not given)	–	inactive: 1.08%
Cc1ccc(C(=O)Nc2c3c(nn2-c2ccccc2)CS(=O)(=O)C3)cc1C	–	inactive: -15%
CC(C(=O)N(C)Cc1cccc(F)c1)N1CCN(S(=O)(=O)c2ccc3c(c2)OCCCO3)CC1 (stereo not given)	inconclusive [inhibitor, full curve, poor fit]	–
COc1cccc(C(=O)Nc2ccc(C(=O)c3ccncc3)cc2)c1	–	inactive: 2.8%
CCOc1ccc(N2C(=O)/C(=C/c3ccccn3)SC2=S)cc1	–	inactive: 10.2%

Reference: PubChem BioAssay AID485294 (National Center for Advancing Translational Sciences (NCATS), 2010)
